The other results are listed elsewhere or left out. At the low end of the ranking the order means little.

In this experiment the target is SIX1 homeodomain (reference allele) (UniProt Q15475). Put plainly: universal protein binding microarray. The settings on record: Universal all-10-mer PBM (8x60K, AMADID 030236), 300 nM GST-tagged protein, Alexa Fluor 488 anti-GST; buffer, salt, pH and temperature not stated; high values mean tight binding; most listed sequences are background and not binding sites; double strand, one strand shown.
Consider GTAAGTAC, for which the binding signal is -0.131 E-score.
With ACTTTCGC, the binding signal was -0.245 E-score.
Take AGATCTTA: the binding signal came out at 0.13 E-score.
On to CCACCTTA, for which the binding signal is -0.159 E-score.
The result for ATATTGAT reads 0.341 E-score; that for CGGCGAAA, 0.0126 E-score.
ATATGATG: the binding signal came out at 0.202 E-score.
For the sequence AAGACTGT, the binding signal was -0.325 E-score.
In the case of GAGCCGTA, the binding signal came out at 0.175 E-score.
On to CTACACTC, for which the binding signal is 0.0392 E-score.
Consider GTCTTGCA, for which the binding signal is -0.218 E-score.
AGGCACAC: the binding signal is -0.187 E-score.
Take GGCTGTAC: the binding signal was -0.149 E-score.
Turning to GAGGCGAA, the binding signal was -0.0438 E-score.
Regarding CGATGTTA, the binding signal is -0.0616 E-score.
With GATTGCCA, the binding signal is -0.058 E-score.
Next, GATAATCA: 0.107 E-score.
As for AGAGCATG, the binding signal is -0.123 E-score.
Next, GAGTTCAA: -0.239 E-score; AGCGCCGA: -0.147 E-score; CAGAGCCA: -0.183 E-score.
Turning to CCGCCATC, the binding signal is 0.0425 E-score.
The result for TAAGTTGA reads -0.0998 E-score.
The result for ATCGACGG reads 0.0598 E-score.
In the case of CGCAGGCC, the binding signal was -0.12 E-score.
For the sequence ATTGGATC, the binding signal is 0.365 E-score.
On to CTCACGGC, for which the binding signal was -0.0659 E-score.
On to AAAACACG, for which the binding signal is -0.0412 E-score.
The result for CCCTAGAG reads 0.0276 E-score; that for CTGGTAGC, -0.08 E-score.
As for CGTAACCC, the binding signal is 0.045 E-score.
Regarding ACCCTTCC, the binding signal turned out to be 0.0963 E-score.
Consider AGTGCTCA, for which the binding signal is -0.074 E-score.
For ATCGCACA, the binding signal was 0.176 E-score.
Turning to ACCACAGG, the binding signal was -0.226 E-score.
In the case of ACTTTTAC, the binding signal is -0.179 E-score.
Take TCGCGCCA: the binding signal is -0.139 E-score.
As to ACTGATAA, the binding signal is 0.125 E-score.
The result for CTAATAGC reads -0.085 E-score; that for CTCGTTGA, -0.0179 E-score.
Next, CCGGTTCC: -0.135 E-score.
Next, AAAACACC: 0.013 E-score; ACTATACC: 0.294 E-score; ATCAGAAT: 0.119 E-score.
ATACACAA: the binding signal was determined as 0.232 E-score.
Next, AGCATACG: 0.143 E-score.
For ATATGACC, the binding signal stood at 0.189 E-score.
Turning to GCCCGGGC, the binding signal is -0.0884 E-score.
On to ATGACGTG, for which the binding signal is -0.241 E-score.
For CACAGACG, the binding signal is -0.0186 E-score.
Take ACTTATGG: the binding signal is -0.158 E-score.
In the case of AGGGTTGG, the binding signal is -0.0556 E-score.
For AATCCATG, the binding signal is 0.11 E-score.
With GTAACCGA, the binding signal was 0.0197 E-score.
As to AACGCTCA, the binding signal is -0.286 E-score.
For ATTAATAA, the binding signal was 0.02 E-score.
In the case of TCAAGGAA, the binding signal is 0.0366 E-score.
Next, GCGTGGCC: -0.241 E-score; GCTTAGGA: 0.00971 E-score; CAGTCCGC: -0.287 E-score.
Take CGGTCAAC: the binding signal is -0.0276 E-score.
Take GTTCTTAA: the binding signal is -0.0751 E-score.
Next, CCTACCCA: -0.109 E-score; CCCGCTGC: -0.102 E-score.
The result for CCTATTAG reads -0.00208 E-score; that for CACGATCG, 0.165 E-score.
Take AAGAAGAG: the binding signal is -0.0709 E-score.
Next, TGGTAGAA: -0.121 E-score; ATGGAAAC: -0.123 E-score; ACCTCACC: -0.147 E-score.
Consider AGCCTAGC, for which the binding signal was -0.201 E-score.
The result for ATTTGCCC reads -0.108 E-score; that for AGGAACCG, -0.15 E-score.
Next, CTTATAAA: -0.0423 E-score; GGGGCACC: -0.161 E-score; ACGGCTCG: -0.0315 E-score.
Next, GCGAGTAA: -0.14 E-score; CGTCAGAA: -0.139 E-score; GGGTCATA: 0.158 E-score.
As for AGTCCCTA, the binding signal was -0.066 E-score.
In the case of CGACCGCA, the binding signal is -0.113 E-score.
Take CTACTAAA: the binding signal was -0.0105 E-score.
As to CGTCCATC, the binding signal is -0.0967 E-score.
As to AGGGCAAA, the binding signal was -0.16 E-score.
In the case of GCTAGGGA, the binding signal is -0.012 E-score.
Take CCGCAAAG: the binding signal is -0.0667 E-score.
Turning to AATAGACG, the binding signal amounted to 0.0219 E-score.
GCGGGTGA: the binding signal turned out to be 0.00477 E-score.
In the case of CAGACTAC, the binding signal was -0.215 E-score.
For the sequence AATGACAG, the binding signal is -0.104 E-score.
On to ACACCTGA, for which the binding signal came to 0.281 E-score.
For the sequence CGGATATC, the binding signal was found to be 0.473 E-score.
Regarding GTTGCGTA, the binding signal was -0.0364 E-score.
Take TTACAGAA: the binding signal was -0.203 E-score.

Values taken from publication PMC10668032.
